Results are given in words; binding and its absence hold for the method and conditions named. Some binding calls cover weakened binding; strength is not graded here. For some assays here: Sequences can lack the tags named with a protein. One block for each binder: values may come before it.
Experiments:
[1] = target: T1, N-terminally truncated human aspartyl-tRNA synthetase (residues Ala21–Pro501) (human) (UniProt P14868); assay: crystal structure; DRS–AIMP2-DX2-S34–EPRSGST (DA2E) subcomplex, 3.6 Å, space group P6_(1), two subcomplexes in the asymmetric unit; crystals at 22°C from sodium/potassium phosphate, 0.1 M CAPS pH 10.5, lithium sulfate; both purified
T1 sequence: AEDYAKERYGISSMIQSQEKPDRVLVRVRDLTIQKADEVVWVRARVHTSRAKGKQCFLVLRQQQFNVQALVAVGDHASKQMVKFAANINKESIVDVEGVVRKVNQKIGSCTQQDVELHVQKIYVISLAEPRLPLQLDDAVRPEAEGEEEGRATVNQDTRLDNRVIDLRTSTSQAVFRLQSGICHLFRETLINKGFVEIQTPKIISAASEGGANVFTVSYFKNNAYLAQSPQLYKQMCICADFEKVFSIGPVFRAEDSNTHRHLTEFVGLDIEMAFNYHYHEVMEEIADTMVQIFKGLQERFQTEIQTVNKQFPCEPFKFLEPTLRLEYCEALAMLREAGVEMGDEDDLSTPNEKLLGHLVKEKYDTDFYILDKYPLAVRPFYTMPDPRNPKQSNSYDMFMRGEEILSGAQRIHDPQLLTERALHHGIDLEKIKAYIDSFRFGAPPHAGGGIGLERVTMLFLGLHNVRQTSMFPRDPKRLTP

[2] = target: T1, N-terminally truncated human aspartyl-tRNA synthetase (residues Ala21–Pro501) (human); assay: crystal structure; crystals of the binary DA2 subcomplex, diffracted only to 4.5 Å; data not shown; both purified
[3] = target: T1, N-terminally truncated human aspartyl-tRNA synthetase (residues Ala21–Pro501) (human); assay: SEC; separately transformed strains pooled in one culture, proteins met on cell disruption by sonication; His6 affinity (HiTrap Chelating HP), then HiLoad 16/600 Superdex 200 pg in 50 mM HEPES–NaOH pH 8.0, 200 mM NaCl, 5 mM DTT, 1% glycerol; SDS–PAGE of the highest peak
[4] = target: T2, C-terminally truncated human EPRSGST (Met1–Gln157) (human) (UniProt P07814); assay: as above
T2 sequence: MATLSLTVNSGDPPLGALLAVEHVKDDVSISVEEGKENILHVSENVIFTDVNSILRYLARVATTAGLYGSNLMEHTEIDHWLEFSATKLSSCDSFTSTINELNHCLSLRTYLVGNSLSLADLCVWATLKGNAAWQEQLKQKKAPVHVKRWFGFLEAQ

[5] = target: T2, C-terminally truncated human EPRSGST (Met1–Gln157) (human); assay: crystal structure; DRS–AIMP2-DX2-S34–EPRSGST (DA2E) subcomplex, 3.6 Å, space group P6_(1), two subcomplexes in the asymmetric unit; crystals at 22°C from sodium/potassium phosphate, 0.1 M CAPS pH 10.5, lithium sulfate; both purified

binding [1]: binds | binding [2]: binds | binding [3]: binds
B1: N-terminally truncated human AIMP2 splice variant lacking exon 2 (residues Ser34–Gln45 and Asp115–Lys320) (domain or fragment, UniProt Q13155 34-45; Q13155 115-320)
chain: SYGPAPGAGHVQDYGALKDIVINANPASPPLSLLVLHRLLCEHFRVLSTVHTHSSVKSVPENLLKCFGEQNKKQPRQDYQLGFTLIWKNVPKTQMKFSIQTMCPIEGEGNIARFLFSLFGQKHNAVNATLIDSWVDIAIFQLKEGSSKEKAAVFRSMNSALGKSPWLAGNELTVADVVLWSVLQQIGGCSVTVPANVQRWMRSCENLAPFNTALKLLK

binding [4]: binds
B2: aminoacyl-tRNA synthetase complex-interacting multifunctional protein 3 (protein, UniProt O43324 1-174)
chain: MAAAAELSLLEKSLGLSKGNKYSAQGERQIPVLQTNNGPSLTGLTTIAAHLVKQANKEYLLGSTAEEKAIVQQWLEYRVTQVDGHSSKNDIHTLLKDLNSYLEDKVYLTGYNFTLADILLYYGLHRFIVDLTVQEKEKYLNVSRWFCHIQHYPGIRQHLSSVVFIKNRLYTNSH

binding [5]: no binding
B3: C-terminally truncated human EPRSGST (Met1–Gln157) (domain or fragment, UniProt P07814 1-157, looked up)
chain: MATLSLTVNSGDPPLGALLAVEHVKDDVSISVEEGKENILHVSENVIFTDVNSILRYLARVATTAGLYGSNLMEHTEIDHWLEFSATKLSSCDSFTSTINELNHCLSLRTYLVGNSLSLADLCVWATLKGNAAWQEQLKQKKAPVHVKRWFGFLEAQ
notes: human glutamyl-prolyl-tRNA synthetase (EPRS), GST domain, residues Met1–Gln157; also called GST domain of glutamyl-prolyl-tRNA synthetase; source: E. coli BL21-CodonPlus (DE3)-RIPL; culture pooled with those of the partners, co-purified (HiTrap Chelating HP, Superdex 200); not shown: His6, C-terminal, kept
